# In paper PMC4336329 (PLoS ONE, 2015):
# The campaign covered roughly 310,000 compounds. About 14,000 (4.5%) showed an effect of 50% or more. The effect is printed as a negative number. Some of the results follow.
# Molecular target: human ether-à-go-go-related gene (hERG) potassium channel (human, UniProt Q12809)
# Test: primary screen, population patch clamp on CHO cells stably expressing hERG
# 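Also: peak tail current of the secondary pulse compared with the same well before compound.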
# human ether-à-go-go-related gene (hERG) potassium channel, sequence (Q12809 whole entry, looked up): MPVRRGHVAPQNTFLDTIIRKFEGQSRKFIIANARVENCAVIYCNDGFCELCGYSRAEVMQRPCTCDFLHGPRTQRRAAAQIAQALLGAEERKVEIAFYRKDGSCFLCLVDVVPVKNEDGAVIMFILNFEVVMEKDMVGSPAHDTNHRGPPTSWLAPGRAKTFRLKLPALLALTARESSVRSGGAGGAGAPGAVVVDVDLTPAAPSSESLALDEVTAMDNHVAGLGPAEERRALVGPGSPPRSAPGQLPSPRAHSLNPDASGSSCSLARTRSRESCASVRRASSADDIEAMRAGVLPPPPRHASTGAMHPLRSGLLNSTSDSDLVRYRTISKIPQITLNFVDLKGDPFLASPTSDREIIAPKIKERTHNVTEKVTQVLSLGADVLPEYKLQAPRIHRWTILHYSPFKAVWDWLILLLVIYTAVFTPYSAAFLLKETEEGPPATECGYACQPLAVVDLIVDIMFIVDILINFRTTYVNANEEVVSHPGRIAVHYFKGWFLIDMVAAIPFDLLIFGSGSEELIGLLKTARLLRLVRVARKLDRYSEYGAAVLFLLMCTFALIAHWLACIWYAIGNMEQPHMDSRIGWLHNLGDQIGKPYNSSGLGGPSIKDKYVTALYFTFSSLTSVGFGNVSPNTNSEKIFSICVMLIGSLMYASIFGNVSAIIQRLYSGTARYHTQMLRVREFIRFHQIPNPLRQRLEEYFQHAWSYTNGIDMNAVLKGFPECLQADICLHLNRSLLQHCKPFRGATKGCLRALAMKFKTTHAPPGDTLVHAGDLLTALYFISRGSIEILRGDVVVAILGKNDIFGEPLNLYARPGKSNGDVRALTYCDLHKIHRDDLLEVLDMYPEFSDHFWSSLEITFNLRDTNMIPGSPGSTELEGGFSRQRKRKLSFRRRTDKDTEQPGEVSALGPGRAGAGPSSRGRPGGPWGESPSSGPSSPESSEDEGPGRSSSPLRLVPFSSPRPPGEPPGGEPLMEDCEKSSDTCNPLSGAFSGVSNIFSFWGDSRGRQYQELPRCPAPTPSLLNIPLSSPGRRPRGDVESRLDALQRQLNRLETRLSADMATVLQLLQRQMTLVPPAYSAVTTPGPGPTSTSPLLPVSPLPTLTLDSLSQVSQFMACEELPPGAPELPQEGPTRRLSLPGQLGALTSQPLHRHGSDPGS
row,Compound,"hERG current change (%, negative = inhibition) at 10uM"
1,CC1C(=O)N2CCCc3cc(S(=O)(=O)NCc4ccc(F)cc4)cc1c32 (stereo not drawn),-23.4%
2,COc1ccc(CC(NC(C)=O)C(=O)NC2CCN(S(=O)(=O)c3ccc(NC(C)=O)cc3)CC2)cc1 (stereo not drawn),-12%
3,Nn1c(Cc2ccccc2)nc2ccccc2c1=O,4.99%
4,Cc1ccc2c(c1)C(c1ccccc1)=NCC(=O)N2,-12.8%
5,CC(C)Cn1c(-c2ccc(Br)o2)n[nH]c1=S,8.25%
6,Cn1c(=O)c(S(=O)(=O)C(C)(C)C)c(O)c2ccccc21,9.35%
7,CSc1ncccc1C(=O)Nc1nnc(C2CC2)s1,-4.22%
8,O=S(=O)(Nc1cccc2nsnc12)c1ccccc1,-4.22%
9,Cc1ccc(N/C=C/C(=O)c2ccco2)c(O)c1,8.63%
10,CCOc1ccc(C(=O)N2CCN(c3ccccc3)CC2)cc1OCC,-32.4%
11,COc1ccccc1Nc1nnc(SCC(=O)N2CC(=O)Nc3ccccc32)s1,0.894%
12,O=C1OCC2=C1C(c1ccc(F)cc1)CC(=O)N2c1ccc(F)cc1 (stereo not drawn),-25.3%
13,O=C1CCC(c2ccccc2)N1C(=O)c1cccnc1 (stereo not drawn),-3.5%
14,O=C(NC1CCCCCCC1)C1c2ccccc2C(=O)N1Cc1cccs1 (stereo not drawn),-4.16%
15,Cc1c(NS(=O)(=O)N2CCCC2)c(=O)n(-c2ccccc2)n1C,-4.23%
16,COc1ccc(CSc2nnnn2C)cc1F,-6.74%
17,CCCCCCCCCCC(=O)NNC(=O)c1c(O)c2ccccc2n(CC)c1=O,4.85%
18,CCc1nc(SCC(=O)OC(C)C)c2ccccc2n1,2.3%
19,COC(=O)C1=C(C(=O)OC)[C@@H]2Nc3ccccc3[C@@]23C[C@@H](C(=O)OC)N=C3N1,3.41%
20,COc1cccc(N2CCN(C(=O)c3cc4c(s3)CCCCC4)CC2)c1,-2.33%
21,CN(C)c1ccc(C(c2ccc(N(C)C)cc2)c2ccc([N+](=O)[O-])cc2)cc1,3.74%
22,COc1ccccc1/C=C/CN1CCN(c2ccccc2)CC1,-15.6%
23,COc1ccccc1N1CSC2=C(C#N)C(c3ccc(SC)cc3)CC(=O)N2C1 (stereo not drawn),17.1%

row,Compound,"hERG current change (%, negative = inhibition) at 10uM"
1,CC(OC(=O)c1cccc(-n2cnnn2)c1)C(=O)Nc1ccc(F)cc1Cl (stereo not drawn),-34.6%
2,COc1ccccc1C(=O)NC(=O)COc1ccc([N+](=O)[O-])cc1,9.66%
3,Cc1ccc(N(CCC#N)C(=O)CSc2nnc3ccccn23)cc1,-8.44%
4,Cc1ccc(N(CN2C(=O)C3C4CCC(C4)C3C2=O)C(=O)c2ccco2)cc1 (stereo not drawn),2.88%
5,CSc1nc(N(C)C)nc(N2CC(=O)N(CCNS(=O)(=O)c3ccc(C)cc3)C2=N)n1,-1.59%
6,CC1CCc2c(sc(NC(=O)CSc3ncnc4c3cnn4-c3ccccc3Cl)c2C#N)C1 (stereo not drawn),13.2%
7,C=CCOc1ccccc1CN1CCC(Cc2ccccc2)CC1,-70.3%
8,O=C(CSc1n[nH]c(=O)n1-c1cccnc1)Nc1ccccc1Cl,6.68%
9,COc1ccccc1NC(=O)CC1S/C(=N/N=C2\CCCc3ccccc32)NC1=O (stereo not drawn),7.92%
10,COC(=O)C1C(=O)C2=C(CC1C)NC(C)=C(C(=O)OCCOc1ccccc1)C2c1ccc(C)o1 (stereo not drawn),5.84%
11,O=C(CNC(=O)c1ccccc1)NC1(C(=O)NC2CCCCC2)CCCCC1,-6.42%
12,Cc1ccc(-c2nc3ccccc3c(=O)n2-c2cccnc2)cc1,-6.99%
13,CCOc1ccc(NC(=O)CN(C)c2ccc(S(=O)(=O)N3CCOCC3)cn2)cc1OCC,10.4%
14,Cc1cc(=O)n(CCCO)c(O)c1C#N,14.3%
15,Cc1sc2ncnc(SCC(=O)NC3CCCC3)c2c1C,-0.805%
16,O=C1CCN(Cc2ccc(O)cc2)CCN1[C@H](CO)Cc1ccccc1,2.51%
17,Cc1cc(N2CCN(c3ccc(F)cc3)CC2)n2ncnc2n1,-57.6%
18,FCCCOc1ccc(/C=N/OCc2ccc(Cl)cc2)cc1,-3%
19,CSc1ccccc1NC(=O)CSCc1nc2sc(C)c(C)c2c(=O)[nH]1,-2.15%
20,O=Cc1c(N2CCC3(CC2)OCCO3)nc2ccccn2c1=O,12%
21,COc1ccccc1CN(Cc1cccnc1)S(=O)(=O)c1ccc(-n2cnnn2)c(OC)c1,-63%
22,COc1cc(OC)c(OC)cc1/C=C1\CCC(C2CCCC2)C1=O (stereo not drawn),0.112%
